# Laboratory results from publication PMC9911399.
# Some of the results follow.
# Molecular target: T1, RBFOX1 RRM (Homo sapiens) (UniProt Q9NWB1)
# T1 sequence: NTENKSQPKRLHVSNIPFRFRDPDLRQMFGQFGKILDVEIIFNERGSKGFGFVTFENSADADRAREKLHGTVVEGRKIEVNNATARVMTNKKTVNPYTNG
# Assay: EMSA
# Settings: HiTS-Eq, 1 nM pool, 10 min; buffer printed only for the single-RNA assays: 10 mM Tris pH 7.5, 150 mM NaCl, 3.4 mM EDTA, 0.001% NP-40, 30 C
row,Sequence,binding signal (KA relative to UGCAUGU)
1,GGGAGACCGGAAUUCAGAUUGUCCCCCCACAUUAAAUCCCGUCGUAGCCACCA / CAATCTGAATTCCGGTCTCCC / TGGTGGCTACGACGGGATT,0.0035
2,GGGAGACCGGAAUUCAGAUUGUCCAGUAUCAUUAAAUCCCGUCGUAGCCACCA / CAATCTGAATTCCGGTCTCCC / TGGTGGCTACGACGGGATT,0.0107
3,GGGAGACCGGAAUUCAGAUUGUCCGGUCUCCUUAAAUCCCGUCGUAGCCACCA / CAATCTGAATTCCGGTCTCCC / TGGTGGCTACGACGGGATT,0.497
4,GGGAGACCGGAAUUCAGAUUGUCCCGUCUCAUUAAAUCCCGUCGUAGCCACCA / CAATCTGAATTCCGGTCTCCC / TGGTGGCTACGACGGGATT,0.00727
5,GGGAGACCGGAAUUCAGAUUGUCCGGUAUCAUUAAAUCCCGUCGUAGCCACCA / CAATCTGAATTCCGGTCTCCC / TGGTGGCTACGACGGGATT,0.0241
6,GGGAGACCGGAAUUCAGAUUGUCCCUUAUCAUUAAAUCCCGUCGUAGCCACCA / CAATCTGAATTCCGGTCTCCC / TGGTGGCTACGACGGGATT,0.00242
7,GGGAGACCGGAAUUCAGAUUGUCCGGACUCCUUAAAUCCCGUCGUAGCCACCA / CAATCTGAATTCCGGTCTCCC / TGGTGGCTACGACGGGATT,0.00542
8,GGGAGACCGGAAUUCAGAUUGUCCGGUCUUCUUAAAUCCCGUCGUAGCCACCA / CAATCTGAATTCCGGTCTCCC / TGGTGGCTACGACGGGATT,0.0144
9,GGGAGACCGGAAUUCAGAUUGUCCCCGAUCAUUAAAUCCCGUCGUAGCCACCA / CAATCTGAATTCCGGTCTCCC / TGGTGGCTACGACGGGATT,0.0107
10,GGGAGACCGGAAUUCAGAUUGUCCGGUUCUCUUAAAUCCCGUCGUAGCCACCA / CAATCTGAATTCCGGTCTCCC / TGGTGGCTACGACGGGATT,0.0401
11,GGGAGACCGGAAUUCAGAUUGUCCCCCCCCAUUAAAUCCCGUCGUAGCCACCA / CAATCTGAATTCCGGTCTCCC / TGGTGGCTACGACGGGATT,0.0067
12,GGGAGACCGGAAUUCAGAUUGUCCUCCCCGGUUAAAUCCCGUCGUAGCCACCA / CAATCTGAATTCCGGTCTCCC / TGGTGGCTACGACGGGATT,0.0115
13,GGGAGACCGGAAUUCAGAUUGUCCGGACCCAUUAAAUCCCGUCGUAGCCACCA / CAATCTGAATTCCGGTCTCCC / TGGTGGCTACGACGGGATT,0.00583
14,GGGAGACCGGAAUUCAGAUUGUCCGGUCCUAUUAAAUCCCGUCGUAGCCACCA / CAATCTGAATTCCGGTCTCCC / TGGTGGCTACGACGGGATT,0.00799
15,GGGAGACCGGAAUUCAGAUUGUCCGGCUCCCUUAAAUCCCGUCGUAGCCACCA / CAATCTGAATTCCGGTCTCCC / TGGTGGCTACGACGGGATT,0.0973
16,GGGAGACCGGAAUUCAGAUUGUCCCGUUUCAUUAAAUCCCGUCGUAGCCACCA / CAATCTGAATTCCGGTCTCCC / TGGTGGCTACGACGGGATT,0.00263
17,GGGAGACCGGAAUUCAGAUUGUCCGGCCUCCUUAAAUCCCGUCGUAGCCACCA / CAATCTGAATTCCGGTCTCCC / TGGTGGCTACGACGGGATT,0.0295
18,GGGAGACCGGAAUUCAGAUUGUCCCGCAUCAUUAAAUCCCGUCGUAGCCACCA / CAATCTGAATTCCGGTCTCCC / TGGTGGCTACGACGGGATT,0.0136
19,GGGAGACCGGAAUUCAGAUUGUCCGGUCGACUUAAAUCCCGUCGUAGCCACCA / CAATCTGAATTCCGGTCTCCC / TGGTGGCTACGACGGGATT,0.0159

row,Sequence,binding signal (KA relative to UGCAUGU)
1,GGGAGACCGGAAUUCAGAUUGUCCGGUCCCCUUAAAUCCCGUCGUAGCCACCA / CAATCTGAATTCCGGTCTCCC / TGGTGGCTACGACGGGATT,0.00415
2,GGGAGACCGGAAUUCAGAUUGUCCUCCCCUAUUAAAUCCCGUCGUAGCCACCA / CAATCTGAATTCCGGTCTCCC / TGGTGGCTACGACGGGATT,0.00209
3,GGGAGACCGGAAUUCAGAUUGUCCGGCCCCCUUAAAUCCCGUCGUAGCCACCA / CAATCTGAATTCCGGTCTCCC / TGGTGGCTACGACGGGATT,0.00542
4,GGGAGACCGGAAUUCAGAUUGUCCCAUAUCAUUAAAUCCCGUCGUAGCCACCA / CAATCTGAATTCCGGTCTCCC / TGGTGGCTACGACGGGATT,0.00246
5,GGGAGACCGGAAUUCAGAUUGUCCCGUACCAUUAAAUCCCGUCGUAGCCACCA / CAATCTGAATTCCGGTCTCCC / TGGTGGCTACGACGGGATT,0.0164
6,GGGAGACCGGAAUUCAGAUUGUCCCGUAUCCUUAAAUCCCGUCGUAGCCACCA / CAATCTGAATTCCGGTCTCCC / TGGTGGCTACGACGGGATT,0.00751
7,GGGAGACCGGAAUUCAGAUUGUCCGGUCUCUUUAAAUCCCGUCGUAGCCACCA / CAATCTGAATTCCGGTCTCCC / TGGTGGCTACGACGGGATT,0.0446
8,GGGAGACCGGAAUUCAGAUUGUCCUGUAUCAUUAAAUCCCGUCGUAGCCACCA / CAATCTGAATTCCGGTCTCCC / TGGTGGCTACGACGGGATT,0.00179
9,GGGAGACCGGAAUUCAGAUUGUCCGCUAUCAUUAAAUCCCGUCGUAGCCACCA / CAATCTGAATTCCGGTCTCCC / TGGTGGCTACGACGGGATT,0.00412
10,GGGAGACCGGAAUUCAGAUUGUCCGUCUCCCUUAAAUCCCGUCGUAGCCACCA / CAATCTGAATTCCGGTCTCCC / TGGTGGCTACGACGGGATT,0.0532
11,GGGAGACCGGAAUUCAGAUUGUCCCCUCCCCUUAAAUCCCGUCGUAGCCACCA / CAATCTGAATTCCGGTCTCCC / TGGTGGCTACGACGGGATT,0.000225
12,GGGAGACCGGAAUUCAGAUUGUCCCGUAUCAUUAAAUCCCGUCGUAGCCACCA / CAATCTGAATTCCGGTCTCCC / TGGTGGCTACGACGGGATT,0.000239
13,GGGAGACCGGAAUUCAGAUUGUCCCGCCUCAUUAAAUCCCGUCGUAGCCACCA / CAATCTGAATTCCGGTCTCCC / TGGTGGCTACGACGGGATT,0.00495
14,GGGAGACCGGAAUUCAGAUUGUCCGAUCUCCUUAAAUCCCGUCGUAGCCACCA / CAATCTGAATTCCGGTCTCCC / TGGTGGCTACGACGGGATT,0.0201
15,GGGAGACCGGAAUUCAGAUUGUCCGGUUUCCUUAAAUCCCGUCGUAGCCACCA / CAATCTGAATTCCGGTCTCCC / TGGTGGCTACGACGGGATT,0.0295
16,GGGAGACCGGAAUUCAGAUUGUCCGCCAUCAUUAAAUCCCGUCGUAGCCACCA / CAATCTGAATTCCGGTCTCCC / TGGTGGCTACGACGGGATT,0.00482
17,GGGAGACCGGAAUUCAGAUUGUCCGGUCUCAUUAAAUCCCGUCGUAGCCACCA / CAATCTGAATTCCGGTCTCCC / TGGTGGCTACGACGGGATT,0.0132
18,GGGAGACCGGAAUUCAGAUUGUCCGCGAUCAUUAAAUCCCGUCGUAGCCACCA / CAATCTGAATTCCGGTCTCCC / TGGTGGCTACGACGGGATT,0.00743
19,GGGAGACCGGAAUUCAGAUUGUCCCCUAUCAUUAAAUCCCGUCGUAGCCACCA / CAATCTGAATTCCGGTCTCCC / TGGTGGCTACGACGGGATT,0.00204
